In PubChem BioAssay (Tox21):
Inconclusive means that the source gave no clear call. Such entries were picked first, then a sample of the others. For some assays here: A potency beside an inconclusive call is a rough fit, not a confirmed value. Activity calls are given as the source filed them. Unless noted, the call rests on the fitted dose curve; in most records, active means well fitted curve in the direction sought with a large enough effect in the repeat runs; inconclusive means weak or mixed curves; inactive means no such curve, though single readings can be large; an effect the other way counts as inactive or inconclusive.

Columns and labels:
[1] = biological target: Luciferin 4-monooxygenase (Photinus pyralis) (UniProt P08659); experiment: qHTS assay to identify small molecule inhibitors of firefly luciferase (AID 1224835); further: potency means the concentration at half of the fitted maximal effect; nearly all actives have a fitted effect of over 25% in size; details: purified P. pyralis luciferase, luminescence inhibition; series mostly up to 115 µM
Summary of the method: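 Inhibition of purified Photinus luciferase is measured by luminescence. Substrate levels (D-luciferin, ATP) sit at their KM values. Each compound is tested in a concentration series.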

[2] = qHTS assay to identify small molecule antagonists of the estrogen related receptor signaling pathway with the pleiotropic PPARgamma coactivator (PGC) from Tox21 10K library - cell viability counter screen (AID 1224840; active means well fitted cell-killing curve with a large enough effect in the repeat runs, not every such curve was filed as active; inconclusive means weak or mixed curves, or effect the other way; inactive means no such curve, though single readings can be large or run the other way; further: on the % scale 0 is the no-effect control and ±100 the full control effect; nearly all actives have a fitted effect of over 40% in size); details: PGC/ERR reporter cells viability, CellTiter-Fluor, 17.5 h; series mostly up to 92.4 µM
Summary of the method: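 Cell viability is measured by CellTiter-Fluor fluorescence in PGC/ERR cells that receive compounds after a 6-hour attachment period and are then incubated 17.5 hours at 37 C.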

[3] = A CellTox Green Cytotoxicity Assay to monitor cytotoxicity in HEK293 cells - 40 hour (AID 1224871); details: CellTox Green fluorescence; series mostly up to 76.8 µM; further: potency means the concentration at half of the fitted maximal effect; nearly all actives have a fitted effect of over 45% in size
Summary of the method: (§1)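 Dead-cell fluorescence measured kinetically: asymmetric cyanine dye, HEK293, 600 cells/well, 5 h settle, 23 nL cpd/DMSO, 37 C, reads 0–40 h every 8 h.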

[4] = biological target: Androgen receptor (Homo sapiens) (UniProt P10275); experiment: qHTS assay to identify small molecule agonists of the androgen receptor (AR) signaling pathway in the presence of an antagonist (AID 1259381; calls by dose curve; further: on the % scale 0 is the no-effect control and ±100 the full control effect; nearly all actives have a fitted effect of over 15% in size); details: MDA-kb2 MMTV-luciferase, AR agonist + nilutamide, 16 h; series mostly up to 92.4 µM
Summary of the method: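 Reporter-gene luminescence from MDA-kb2 cells exposed 16hr at 37C (0% CO2) to 15-point compound titrations with 3.0uM final nilutamide as AR antagonist.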

[5] = biological target: Glucocorticoid receptor (Homo sapiens) (UniProt P04150); experiment: qHTS assay to identify small molecule antagonists of the glucocorticoid receptor (GR) signaling pathway (AID 720692; active means well fitted inhibition curve with a large enough effect in the signal ratio in the repeat runs, not every such curve was filed as active; inconclusive means weak or mixed curves, or effect the other way; inactive means no such curve, though single readings can be large or run the other way; the % refers to the signal ratio; further: on the % scale 0 is the no-effect control and ±100 the full control effect); details: GR-bla HeLa, beta-lactamase FRET ratio, dexamethasone-stimulated, 18 h; activity change, negative = inhibition: at 58.5 µM (top of the series) unless noted
Summary of the method: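 Quantitative HTS in antagonist format: HeLa cells expressing endogenous GR and a stably integrated GRE-bla reporter, stimulated with 5 nM dexamethasone (final) alongside test compounds for 18 h.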

[6] = qHTS assay for identifying genotoxic compounds that show differential cytotoxicity against isogenic chicken DT40 cell lines with known DNA damage response pathways - wild type cell line (AID 743012); details: DT40 wild type chicken cells viability, CellTiter-Glo, 40 h; activity change, negative = cytotoxicity: at 68.4 µM (top of the series) unless noted; further: potency means the concentration at half of the fitted maximal effect; nearly all actives have a fitted effect of over 60% in size
Summary of the method: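 Luminescent ATP viability signal (CellTiter-Glo, 30 min RT) recorded after wild type DT40 cells were incubated with compounds for 40 h at 37 C/5% CO2.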

[7] = qHTS assay for identifying genotoxic compounds that show differential cytotoxicity against isogenic chicken DT40 cell lines with known DNA damage response pathways - Rev3 mutant cell line (AID 743014); details: chicken DT40 Rev3-/- viability, CellTiter-Glo, 40 h; activity, negative = cytotoxicity: at 68.4 µM (top of the series) unless noted; further: potency means the concentration at half of the fitted maximal effect; nearly all actives have a fitted effect of over 55% in size
[8] = qHTS assay for identifying genotoxic compounds that show differential cytotoxicity against isogenic chicken DT40 cell lines with known DNA damage response pathways - Rad54/Ku70 mutant cell line (AID 743015); details: DT40 Rad54/Ku70 mutant viability, CellTiter-Glo, 40 h; activity change, negative = cytotoxicity: at 66.8 µM (top of the series) unless noted; further: potency means the concentration at half of the fitted maximal effect; nearly all actives have a fitted effect of over 60% in size
[9] = qHTS assay to identify small molecule antagonists of the androgen receptor (AR) signaling pathway using the MDA cell line - cell viability counter screen (AID 743041; further: potency means the concentration at half of the fitted maximal effect; nearly all actives have a fitted effect of over 45% in size); details: MDA-kb2 viability, CellTiter-Fluor, 16 h, cells co-treated with R1881 androgen agonist; viability change, negative = cytotoxic: at 70.3 µM (top of the series)
Summary of the method: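 Using the breast carcinoma line MDA-kb2 AR-luc, test chemicals were co-incubated with R1881 for 16 h; CellTiter-Fluor reagent, added at 15.5 h, provided a fluorescence measure of live cells.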

[10] = qHTS assay to identify small molecule antagonists of the estrogen receptor alpha (ER-alpha) signaling pathway - cell viability counter screen (AID 743074; calls by dose curve;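 further: HEK293 cells carrying ER-alpha-UAS-bla reporter stimulated with 17beta-estradiol; on the % scale 0 is the no-effect control and ±100 the full control effect; nearly all actives have a fitted effect of over 45% in size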); details: ERalpha-bla HEK293 viability, CellTiter-Glo luminescence, 18 h; series mostly up to 69.4 µM
[11] = biological target: Aryl hydrocarbon receptor (Homo sapiens) (UniProt P35869); experiment: qHTS assay to identify small molecule that activate the aryl hydrocarbon receptor (AhR) signaling pathway (AID 743085); details: HepG2 AhR-luc (HG2L7.5c1), luciferase, 24 h; series mostly up to 70.3 µM; further: potency means the concentration at half of the fitted maximal effect; nearly all actives have a fitted effect of over 15% in size
Summary of the method: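 Measured in HG2L7.5c1 cells: CellTiter-Fluor signal (30 min incubation, 37C) for viability, then luciferase luminescence (30 min, room temperature). Compound contact time was 24 h at 37C, following a 5 h pre-incubation.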

[12] = biological target: Peroxisome proliferator-activated receptor gamma (Homo sapiens) (UniProt P37231); experiment: qHTS assay to identify small molecule agonists of the peroxisome proliferator-activated receptor gamma (PPARg) signaling pathway (AID 743094; active means well fitted activation curve with a large enough effect in the signal ratio in the repeat runs, not every such curve was filed as active; inconclusive means weak or mixed curves, or effect the other way; inactive means no such curve, though single readings can be large or run the other way; the % refers to the signal ratio; further: on the % scale 0 is the no-effect control and ±100 the full control effect); details: HEK293H PPARg-UAS-bla, beta-lactamase FRET ratio, 17 h; activation: at 57 µM (top of the series) unless noted
Summary of the method: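 Reporter activation was scored by fluorescence of cleaved LiveBLAzer B/G substrate (1 h, room temperature) in PPARg-bla HEK293H cells previously treated 17 h at 37C with DMSO-dissolved compounds.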

[13] = qHTS assay to identify small molecule antagonists of the peroxisome proliferator-activated receptor gamma (PPARg) signaling pathway - cell viability counter screen (AID 743194); details: PPARg-bla HEK293H viability, CellTiter-Glo luminescence, 17 h, co-treated with 50 nM rosiglitazone; activity change, negative = cytotoxicity: at 62.6 µM (top of the series) unless noted; further: potency means the concentration at half of the fitted maximal effect; nearly all actives have a fitted effect of over 55% in size
Summary of the method: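 Viability was measured as CellTiter-Glo luminescence in GeneBLAzer PPARg UAS-bla HEK293H cells. These cells had been exposed 17 h at 37 C to compounds together with rosiglitazone at 50 nM final, with the beta-lactamase readout taken in the same wells.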

[14] = qHTS assay for small molecule agonists of the antioxidant response element (ARE) signaling pathway (AID 743202; active means well fitted activation curve with a large enough effect in the signal ratio in the repeat runs, not every such curve was filed as active; inconclusive means weak or mixed curves, or effect the other way; inactive means no such curve, though single readings can be large or run the other way; the % refers to the signal ratio; further: on the % scale 0 is the no-effect control and ±100 the full control effect); details: HepG2 ARE-bla reporter, beta-lactamase FRET, 16 h; activation: at 73.3 µM (top of the series) unless noted
Summary of the method: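 Beta-lactamase reporter activity, read as fluorescence intensity, reflects ARE/Nrf2 pathway induction in HepG2 cells after 16 h compound exposure at 37 C; substrate loading was 2 h at room temperature.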

[15] = biological target: Vitamin D3 receptor (Homo sapiens) (UniProt P11473); experiment: qHTS assay to identify small molecule antagonists of the vitamin D receptor (VDR) signaling pathway (AID 743223; active means well fitted inhibition curve with a large enough effect in the signal ratio in the repeat runs, not every such curve was filed as active; inconclusive means weak or mixed curves, or effect the other way; inactive means no such curve, though single readings can be large or run the other way; the % refers to the signal ratio; further: on the % scale 0 is the no-effect control and ±100 the full control effect); details: VDR-UAS-bla HEK293T, beta-lactamase FRET ratio, 16 h; activity change, negative = inhibition: at 61 µM (top of the series) unless noted
Summary of the method: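 Beta-lactamase activity in VDR-bla cells is measured by FRET substrate fluorescence (2 h, room temperature) after cells spend 16 h at 37C with test compound and 3 nM final 1alpha,25-dihydroxyvitamin D3.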

[16] = qHTS assay to identify small molecule antagonists of the vitamin D receptor (VDR) signaling pathway - cell viability counter screen (AID 743225); details: VDR-bla HEK293T viability, CellTiter-Glo luminescence, 16 h; viability change, negative = cytotoxic: at 61 µM (top of the series) unless noted; further: on the % scale 0 is the no-effect control and ±100 the full control effect; nearly all actives have a fitted effect of over 50% in size
Summary of the method: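 In this counter screen, VDR-bla HEK 293T cells receive test compound plus 3 nM final calcitriol for 16 h at 37C. Room-temperature steps of 2 h with the beta-lactamase substrate, then 30 min with CellTiter-Glo, precede the luminescence read.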

[17] = qHTS assay to identify small molecule antagonists of the estrogen related receptor (ERR) signaling pathway from Tox21 library - cell viability counter screen (AID 1224834); details: ERR reporter cells viability, CellTiter-Fluor, 17.5 h; series mostly up to 92.4 µM; further: on the % scale 0 is the no-effect control and ±100 the full control effect; nearly all actives have a fitted effect of over 30% in size
Summary of the method: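 Compounds in DMSO were pinned onto ERR cells that had been incubated for 6 h, and the plates were held at 37 C for 17.5 h. CellTiter-Fluor reagent was then added and fluorescence was measured after 30 min.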

[18] = qHTS assay to identify small molecule agonists of the hypoxia (HIF-1) signaling pathway (AID 1224846; active means well fitted activation curve with a large enough effect in the signal ratio in the repeat runs, not every such curve was filed as active; inconclusive means weak or mixed curves; the % refers to the signal ratio; further: on the % scale 0 is the no-effect control and ±100 the full control effect); details: HRE-bla ME-180 cells, beta-lactamase ratio, 17 h; activation: at 76.8 µM (top of the series) unless noted
Summary of the method: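 Agonist mode reporter screen. ME-180 cells stably expressing bla under HRE control received test compounds in DMSO for 17 hrs (37C, 5% CO2), and beta-lactamase activity was then detected with the CCF4-AM FRET substrate.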

[19] = A CellTox Green Cytotoxicity Assay to monitor cytotoxicity in HEK293 cells - 32 hour (AID 1224881); details: CellTox Green fluorescence; series mostly up to 76.8 µM; further: on the % scale 0 is the no-effect control and ±100 the full control effect; nearly all actives have a fitted effect of over 40% in size
Summary of the method: as §1

[20] = qHTS assay to identify small molecule agonists of the sonic hedgehog signaling (Shh) pathway - cell viability counter screen (AID 1259366); details: NIH/3T3 Gli1-Luc viability, CellTiter-Fluor, 24 h; series mostly up to 92.4 µM; further: on the % scale 0 is the no-effect control and ±100 the full control effect; nearly all actives have a fitted effect of over 50% in size
Summary of the method: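 After a 4hr attachment at 37C, NIH/3T3 cells bearing an integrated Gli1-driven luciferase reporter were dosed with compounds. Treatment lasted 24hr, with the final hour including CellTiter-Fluor for a fluorescence viability measurement.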

[21] = qHTS assay to identify small molecule antagonists of the sonic hedgehog signaling (Shh) pathway (AID 1259369; calls by dose curve; further: potency means the concentration at half of the fitted maximal effect; nearly all actives have a fitted effect of over 45% in size); details: NIH/3T3 Gli1-Luc reporter, Shh antagonist, luminescence 24 h; series mostly up to 92.4 µM
Summary of the method: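 Stable Gli1-Luc reporter NIH/3T3 clone; quantitative HTS in stimulated mode with conditioned medium. Luminescence measured after 24hr compound treatment at 37 C.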

[22] = biological target: Nuclear receptor subfamily 1 group I member 2 (Homo sapiens) (UniProt O75469); experiment: Human pregnane X receptor (PXR) small molecule agonists, qHTS assay (AID 1346982); details: PXR-Luc HepG2, CYP3A4 luciferase reporter, 24 h; series mostly up to 92.4 µM; further: potency means the concentration at half of the fitted maximal effect; nearly all actives have a fitted effect of over 35% in size
Summary of the method: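 Reporter HepG2 cells expressing PXR-Luc are cultured in charcoal-stripped FBS (5%), treated with compounds for 24 hr at 37 C, and assayed by ONE-Glo luminescence after 30 min at room temperature.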

[23] = biological target: Cytochrome P450 1A2 (Homo sapiens) (UniProt P05177); experiment: Cytochrome P450 Family 1 Subfamily A Member 2 (CYP1A2) small molecule antagonists: luciferase reporter qHTS assay (AID 1671199); details: P450-Glo CYP1A2 enzyme, luciferin luminescence, 1 h; series mostly up to 115 µM; further: potency means the concentration at half of the fitted maximal effect; nearly all actives have a fitted effect of over 50% in size
Summary of the method: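 Steps: enzyme-substrate mix dispensed; test compounds and furafylline control pinned in; 10 min room temperature; NADPH regeneration solution added, 1 h; reaction stopped with luciferin detection reagent; luminescence read after 20 min.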
Tags describe the fitted curve by direction and shape.

Chain of UniProt P11473 (P11473 whole entry, looked up): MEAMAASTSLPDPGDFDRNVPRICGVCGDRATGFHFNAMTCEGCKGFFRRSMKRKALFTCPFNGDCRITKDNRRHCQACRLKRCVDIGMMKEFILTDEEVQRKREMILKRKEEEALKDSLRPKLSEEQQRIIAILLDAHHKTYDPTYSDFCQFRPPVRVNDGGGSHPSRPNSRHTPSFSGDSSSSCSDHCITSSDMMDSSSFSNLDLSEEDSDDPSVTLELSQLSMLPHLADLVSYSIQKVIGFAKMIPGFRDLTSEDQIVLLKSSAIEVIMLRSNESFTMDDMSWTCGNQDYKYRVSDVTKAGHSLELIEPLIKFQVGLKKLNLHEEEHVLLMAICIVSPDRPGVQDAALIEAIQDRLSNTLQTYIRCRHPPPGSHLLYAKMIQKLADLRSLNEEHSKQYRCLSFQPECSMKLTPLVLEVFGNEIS
Chain of UniProt P35869 (P35869 whole entry, looked up): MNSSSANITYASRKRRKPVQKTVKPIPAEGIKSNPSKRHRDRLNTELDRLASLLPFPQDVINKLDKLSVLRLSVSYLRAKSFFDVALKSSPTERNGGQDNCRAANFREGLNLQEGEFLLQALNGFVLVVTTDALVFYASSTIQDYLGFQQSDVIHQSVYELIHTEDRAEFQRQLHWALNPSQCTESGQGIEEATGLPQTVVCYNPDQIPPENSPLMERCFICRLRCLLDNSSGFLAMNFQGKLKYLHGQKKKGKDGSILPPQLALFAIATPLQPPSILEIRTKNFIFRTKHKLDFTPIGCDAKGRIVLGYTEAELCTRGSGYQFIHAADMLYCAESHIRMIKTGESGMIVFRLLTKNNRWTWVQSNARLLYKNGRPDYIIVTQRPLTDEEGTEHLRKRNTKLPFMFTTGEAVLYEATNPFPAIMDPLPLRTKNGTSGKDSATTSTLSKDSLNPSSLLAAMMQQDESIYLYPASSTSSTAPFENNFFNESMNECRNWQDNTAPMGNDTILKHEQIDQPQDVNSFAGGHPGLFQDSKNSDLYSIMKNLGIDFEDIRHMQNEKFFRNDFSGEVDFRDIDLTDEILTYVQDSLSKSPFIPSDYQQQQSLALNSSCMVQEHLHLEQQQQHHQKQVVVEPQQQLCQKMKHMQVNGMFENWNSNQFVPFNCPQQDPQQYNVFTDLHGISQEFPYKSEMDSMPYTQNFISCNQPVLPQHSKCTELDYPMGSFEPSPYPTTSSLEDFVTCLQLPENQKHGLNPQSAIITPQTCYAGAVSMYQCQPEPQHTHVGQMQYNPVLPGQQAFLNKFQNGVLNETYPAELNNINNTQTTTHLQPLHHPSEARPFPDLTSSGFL
Chain of UniProt P10275 (P10275 whole entry, looked up): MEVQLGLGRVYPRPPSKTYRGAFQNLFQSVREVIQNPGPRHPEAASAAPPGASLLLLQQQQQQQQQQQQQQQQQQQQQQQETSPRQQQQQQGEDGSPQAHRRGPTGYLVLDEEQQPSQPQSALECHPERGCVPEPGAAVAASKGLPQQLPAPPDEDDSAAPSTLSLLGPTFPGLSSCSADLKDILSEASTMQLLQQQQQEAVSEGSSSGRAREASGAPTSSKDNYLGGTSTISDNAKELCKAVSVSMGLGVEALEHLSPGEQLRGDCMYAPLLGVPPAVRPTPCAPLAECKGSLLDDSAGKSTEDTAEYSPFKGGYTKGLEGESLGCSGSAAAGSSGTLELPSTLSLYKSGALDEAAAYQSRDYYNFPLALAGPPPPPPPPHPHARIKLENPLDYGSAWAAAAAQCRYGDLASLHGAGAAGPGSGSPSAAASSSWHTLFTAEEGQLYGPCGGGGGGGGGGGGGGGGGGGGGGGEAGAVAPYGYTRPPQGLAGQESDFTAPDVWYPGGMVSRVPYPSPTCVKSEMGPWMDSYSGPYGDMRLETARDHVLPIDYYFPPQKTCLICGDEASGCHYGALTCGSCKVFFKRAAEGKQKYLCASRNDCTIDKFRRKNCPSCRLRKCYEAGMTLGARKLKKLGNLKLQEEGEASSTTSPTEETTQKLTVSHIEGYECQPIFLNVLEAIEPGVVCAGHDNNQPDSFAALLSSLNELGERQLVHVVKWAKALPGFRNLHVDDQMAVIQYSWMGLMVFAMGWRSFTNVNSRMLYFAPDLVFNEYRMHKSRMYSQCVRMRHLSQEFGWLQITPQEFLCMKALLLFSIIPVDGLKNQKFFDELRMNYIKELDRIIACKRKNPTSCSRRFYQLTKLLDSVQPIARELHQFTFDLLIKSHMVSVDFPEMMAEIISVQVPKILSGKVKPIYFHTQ
Chain of UniProt P05177 (P05177 whole entry, looked up): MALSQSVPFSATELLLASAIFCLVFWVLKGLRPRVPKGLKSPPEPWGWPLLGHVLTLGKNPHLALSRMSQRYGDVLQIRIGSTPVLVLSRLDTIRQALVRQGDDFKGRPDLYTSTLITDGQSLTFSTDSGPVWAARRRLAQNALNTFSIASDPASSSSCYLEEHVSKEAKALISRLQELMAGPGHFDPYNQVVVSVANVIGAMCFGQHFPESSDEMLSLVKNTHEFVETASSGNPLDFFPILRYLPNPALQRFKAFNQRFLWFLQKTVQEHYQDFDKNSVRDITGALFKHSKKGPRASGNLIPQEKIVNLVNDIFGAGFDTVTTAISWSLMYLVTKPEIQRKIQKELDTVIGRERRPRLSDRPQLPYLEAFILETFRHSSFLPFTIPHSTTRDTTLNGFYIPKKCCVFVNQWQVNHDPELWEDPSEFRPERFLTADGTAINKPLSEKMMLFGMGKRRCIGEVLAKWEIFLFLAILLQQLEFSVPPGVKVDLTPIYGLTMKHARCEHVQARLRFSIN
Chain of UniProt P04150 (P04150 whole entry, looked up): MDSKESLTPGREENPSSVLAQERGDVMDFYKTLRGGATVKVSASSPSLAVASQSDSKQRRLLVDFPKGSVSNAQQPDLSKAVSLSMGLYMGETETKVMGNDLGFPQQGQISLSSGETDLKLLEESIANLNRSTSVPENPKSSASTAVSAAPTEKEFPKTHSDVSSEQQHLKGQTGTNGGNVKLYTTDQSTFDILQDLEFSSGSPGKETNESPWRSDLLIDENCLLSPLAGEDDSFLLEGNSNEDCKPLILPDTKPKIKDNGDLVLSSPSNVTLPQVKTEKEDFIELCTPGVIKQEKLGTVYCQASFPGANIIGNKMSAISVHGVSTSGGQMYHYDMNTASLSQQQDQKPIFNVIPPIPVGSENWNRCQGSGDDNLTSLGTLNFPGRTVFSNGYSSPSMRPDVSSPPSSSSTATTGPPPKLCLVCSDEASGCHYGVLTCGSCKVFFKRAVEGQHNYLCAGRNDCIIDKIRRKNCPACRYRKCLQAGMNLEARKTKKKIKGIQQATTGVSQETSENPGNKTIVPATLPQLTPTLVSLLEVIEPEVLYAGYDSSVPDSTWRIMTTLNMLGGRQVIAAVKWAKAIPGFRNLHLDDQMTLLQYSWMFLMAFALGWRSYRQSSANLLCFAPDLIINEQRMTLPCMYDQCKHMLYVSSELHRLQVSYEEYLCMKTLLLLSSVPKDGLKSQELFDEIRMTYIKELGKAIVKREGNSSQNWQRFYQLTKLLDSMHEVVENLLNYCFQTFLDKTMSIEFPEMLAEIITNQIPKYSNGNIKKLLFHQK
Chain of UniProt O75469 (O75469 whole entry, looked up): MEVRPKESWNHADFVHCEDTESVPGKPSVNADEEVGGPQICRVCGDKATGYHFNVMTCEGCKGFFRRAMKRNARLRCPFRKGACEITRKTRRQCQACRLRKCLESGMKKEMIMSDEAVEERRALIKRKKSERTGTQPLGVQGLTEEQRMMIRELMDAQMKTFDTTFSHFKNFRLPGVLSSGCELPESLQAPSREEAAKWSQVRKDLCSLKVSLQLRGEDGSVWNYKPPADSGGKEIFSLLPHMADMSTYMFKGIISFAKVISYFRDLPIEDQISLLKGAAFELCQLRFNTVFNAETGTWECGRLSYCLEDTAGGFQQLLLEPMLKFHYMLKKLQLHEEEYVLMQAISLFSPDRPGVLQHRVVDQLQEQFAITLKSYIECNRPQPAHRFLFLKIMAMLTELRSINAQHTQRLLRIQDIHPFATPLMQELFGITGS
Chain of UniProt P08659 (P08659 whole entry, looked up): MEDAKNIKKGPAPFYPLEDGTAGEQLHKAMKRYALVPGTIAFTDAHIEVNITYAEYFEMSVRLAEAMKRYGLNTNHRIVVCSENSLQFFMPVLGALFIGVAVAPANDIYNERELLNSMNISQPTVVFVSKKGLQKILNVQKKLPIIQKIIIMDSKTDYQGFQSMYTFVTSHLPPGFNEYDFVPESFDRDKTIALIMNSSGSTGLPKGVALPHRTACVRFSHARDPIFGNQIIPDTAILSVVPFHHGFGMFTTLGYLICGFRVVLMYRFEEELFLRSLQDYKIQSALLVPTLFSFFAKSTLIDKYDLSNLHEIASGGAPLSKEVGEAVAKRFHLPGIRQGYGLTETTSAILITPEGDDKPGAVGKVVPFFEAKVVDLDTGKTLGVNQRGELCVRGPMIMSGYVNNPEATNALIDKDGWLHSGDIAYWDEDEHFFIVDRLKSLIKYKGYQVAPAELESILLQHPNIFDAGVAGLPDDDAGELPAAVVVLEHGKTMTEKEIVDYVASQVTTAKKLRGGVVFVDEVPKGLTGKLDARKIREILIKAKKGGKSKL
Chain of UniProt P37231 (P37231 whole entry, looked up): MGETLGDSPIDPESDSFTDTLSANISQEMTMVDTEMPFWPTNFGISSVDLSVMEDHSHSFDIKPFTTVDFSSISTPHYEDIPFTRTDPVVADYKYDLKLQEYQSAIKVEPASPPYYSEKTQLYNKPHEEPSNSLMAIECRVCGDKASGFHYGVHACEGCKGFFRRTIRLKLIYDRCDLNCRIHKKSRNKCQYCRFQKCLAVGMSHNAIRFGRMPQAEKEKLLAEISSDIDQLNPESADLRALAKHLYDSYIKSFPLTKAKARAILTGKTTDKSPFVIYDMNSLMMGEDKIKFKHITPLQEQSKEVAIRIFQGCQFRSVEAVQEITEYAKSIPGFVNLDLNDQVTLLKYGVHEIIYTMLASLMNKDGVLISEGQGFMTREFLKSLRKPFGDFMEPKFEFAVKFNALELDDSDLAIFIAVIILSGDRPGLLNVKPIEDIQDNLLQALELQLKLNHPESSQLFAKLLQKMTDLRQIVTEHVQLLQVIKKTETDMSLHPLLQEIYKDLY

Clc1ccc2c(Cl)ccnc2c1
inactive: Potency [2] | Potency [4]
inconclusive: Potency [1] 100 µM [inhibitor, single point] | Potency [3] 54.9 µM [activator, single point]

C=CCOc1nc(OCC=C)nc(OCC=C)n1
inconclusive: Potency [6] 68.6 µM [cytotoxic, single point] | Potency [7] 61.1 µM [cytotoxic, single point] | Potency [8] 68.6 µM [cytotoxic, single point] | Potency [9] 68.6 µM [rising, partial curve, poor fit] | Potency [13] 49 µM [rising, single point] | activation [14] 19.2% | activity change, negative = inhibition [15] 4.99% | viability change, negative = cytotoxic [16] 8.13% [cytotoxic] | Potency [21] 6.11 µM [inhibitor, full curve] | Potency [22] 61.1 µM [activator, partial curve]
active: Potency [11] 54.5 µM | Potency [23] 6.33 µM
inactive: Potency [5] | Potency [10] | Potency [12] | Potency [17] | Potency [18] | Potency [19] | Potency [20]
